Results from the supplement of paper PMC4723716.
In all, about 3,600 compounds were measured (“viability index relative to DMSO control”: median about 0.81, lowest 2% from about 0.13 on). This is one part of the list.

tested on: Plasmodium falciparum NF54 stage V gametocytes; assay: viability index relative to DMSO control (fraction); higher = less gametocyte killing; conditions: 1.25 µM, incubation time: 72 h
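Also: 384-well serum-free SaLSSA: MitoTracker Red CMXRos staining with saponin lysis, high-content imaging, treated-well particle count divided by plate-mean count of DMSO wells.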

SMILES | viability index
CCOC(=O)C1=C(C)NC2=C(C(=O)C(C(=O)OCC)C(c3ccccc3OC)C2)C1c1cc(OC)c(OC)c(OC)c1 (stereo not given) | 0.934
CCCCN(CCCC)C(=O)Cn1ccc(=N)c2ccccc21 | 0.58
Cc1c(CN2CCC(N3CCC(C(=O)NC4CC4)CC3)CC2)[nH]c2c(Cl)cccc12 | 0.865
CC(=O)N(C1=C(N2CCCCC2)C(=O)c2ccccc2C1=O)c1cccc(F)c1 | 0.833
CSc1nc(SC)c2c3c(sc2n1)CN(C)CC3 | 0.78
COc1ccccc1N1C(=N)SC(=Cc2ccc(OCc3ccccc3F)cc2)C1=O | 0.779
COC(=O)c1c(-c2c(Cl)cccc2Cl)noc1NC(=O)NN1CCCCC1 | 1.1
NC(=O)c1ccc2[nH]c3c(c2c1)CCCC3 | 0.789
CCOC(=O)C1CCN(C(c2cc3cc(OC)c(OC)cc3[nH]c2=O)c2nnnn2Cc2ccccc2)CC1 (stereo not given) | 0.878
CC(=O)N1CCOC1C(C)(C)CC=C(C)CCC=C(C)C (stereo not given) | 0.822
Nc1ccc(C(=O)NN=Cc2cccc([N+](=O)[O-])c2)cc1 | 0.885
CC(=O)Nc1c(C)cc(Cl)cc1Cl | 0.859
COc1ccc2[nH]c(=O)c(CN(C(=S)Nc3ccccc3OC)C3CCCC3)cc2c1 | 0.642
Nc1ccc(-c2nc3cc(Oc4ccc5[nH]c(-c6ccc(N)cc6)nc5c4)ccc3[nH]2)cc1 | 0.811
CCSc1ccc2ccccc2[n+]1CC | 0.864
Cc1ccc(C2CC(C(F)(F)F)n3ncc(C(=O)Nc4ccc(OC(F)(F)F)cc4)c3N2)cc1 (stereo not given) | 0.634
COc1cccc(-c2ccc(O)c(CN3CCCCC3)c2)n1 | 1.11
CCN1C(=Cc2sc3ccc(O)cc3[n+]2CC)C=Cc2cc(C)ccc21 | 0.577
COc1ccc2c(c1)-c1c(ssc1=S)C(C)(C)N2C(=O)c1ccccc1F | 0.898
COc1cc2nc(NCC3CCCO3)n3nc(-c4ccccc4)nc3c2cc1OC (stereo not given) | 0.635
CC(C)CC(NC(=O)OC(C)(C)C)C(=O)NC(Cc1ccccc1)C(=O)OCc1ccccc1 (stereo not given) | 0.797
CC(=NNc1nc2ccccc2s1)c1ccc([N+](=O)[O-])cc1 | 0.933
CCN1C(=Cc2ccc3cc(OC)ccc3[n+]2CC)Sc2cc(C)ccc21 | 0.29

SMILES | viability index
Cc1cc(Nc2ccc(C)c(F)c2)n2nc(C)nc2n1 | 0.9
Cc1ccc(NC(=O)N(CCCN(C)C)Cc2cc3cc4c(cc3[nH]c2=O)OCO4)cc1 | 0.822
CC(C)(C)c1ccc(-c2nc(C34CC5CC(CC(C5)C3)C4)cs2)cc1 | 0.942
COc1ccc([N+](=O)[O-])cc1N(CC1CO1)S(=O)(=O)c1ccc(C)cc1 (stereo not given) | 0.717
COc1ccc(C2CC(=O)C3=C(C2)NC(C)=C(C(=O)OC2CCCC2)C3c2ccc(F)cc2)cc1 (stereo not given) | 0.444
COc1ccc(CN(C)C(C)C)cc1OC1CCN(C(=O)C2CCC2)CC1 | 0.875
CCOC(=O)C1CCCN(C(=O)c2c(C)oc3c2C(=O)c2ccccc2C3=O)C1 (stereo not given) | 0.726
CCN1C(=O)c2ccccc2Sc2ccc(NC(=O)NCCCOC(C)C)cc21 | 1.02
c1ccc(-c2nc3cc4nc(-c5ccccc5)[nH]c4cc3[nH]2)cc1 | 1.15
N#Cc1c2c(c(NCc3ccccn3)n3c1nc1ccccc13)CCCC2 | 0.812
CCOc1ccc(-c2nc(NC(=O)CS(=O)(=O)c3ccccc3)sc2C)cc1 | 0.512
COc1ccc(N2C(=O)C3C(C2=O)C2(c4ccccc4)C(=O)C3(c3ccccc3)C(c3ccc4c(c3)OCO4)=C2c2ccc3c(c2)OCO3)c([N+](=O)[O-])c1 (stereo not given) | 0.776
O=S(=O)(Nc1ccc(F)cc1)N1CCCCCC1 | 0.882
CCn1c(C=CN(C)c2ccccc2)[n+](CC)c2cc(Cl)ccc21 | 1
O=C1NCCN1C(=O)C(c1ccccc1)c1ccccc1 | 1.08
Cn1c2ccncc2c2cc([N+](=O)[O-])ccc21 | 1.13
Cc1ccc(-c2cc(C(F)(F)F)n3ncc(C(=O)Nc4cc(Cl)ccc4O)c3n2)cc1 | 0.554
CCC1(C)CC(CCNCc2ccccc2O)(c2ccc(OC)cc2)CCO1 (stereo not given) | 0.764
CC[n+]1c(C=CN(C)c2ccccc2)sc2ccc(Cl)cc21 | 0.957
COc1cccc2cc(-c3csc(NC(=O)CCC(=O)NC4CCCC4)n3)c(=O)oc12 | 0.747
CCCC[n+]1c(-c2ccccc2)cc(-c2ccccc2)cc1-c1ccccc1 | 0.692
O=C(CCl)Nc1ccc(N2CCCCCC2)cc1 | 0.552
Cc1ccccc1-c1cccc(CN2CCCCC2CCn2cc(C(=O)NC3CC3)nn2)c1 (stereo not given) | 0.971

SMILES | viability index
Sc1nnc(-c2ccncc2)n1CCc1ccccc1 | 0.847
CCOc1ccc(CN2CCN(CC(O)COc3ccc(OCC(O)CN4CCN(Cc5ccc(OCC)cc5)CC4)cc3)CC2)cc1 (stereo not given) | 0.815
CC(=O)N(C1=C(N(C)C)C(=O)c2ccccc2C1=O)c1ccc(Cl)cc1 | 0.208
CCOC(=O)C1=C(CC)NC2=C(C(=O)CC(C)(C)C2)C1c1ccc(Br)cc1 (stereo not given) | 1.02
CC(C)c1ccc(NC(=O)c2ccc(NCCCN(C)Cc3ccccc3)c([N+](=O)[O-])c2)cc1 | 1.54
COc1nncc(-c2cnnc(SC)n2)n1 | 0.665
CCc1cc2c(NCCN3CCCCC3)ncnc2s1 | 0.989
O=C1C2C(C(=O)N1c1cccc3ccccc13)C1C=CC2C12CC2 (stereo not given) | 0.785
Cc1ccc(NC(c2ccccc2)(c2ccccc2)c2ccccc2)cc1C | 0.466
CCN1CCN(c2cc(C)c3cc(NC(=O)c4cc(OC)cc(OC)c4)ccc3n2)CC1 | 0.94
CC(C)C1N=C2c3ccccc3N=C(SCC(=O)Nc3cc(C(F)(F)F)ccc3Cl)N2C1=O (stereo not given) | 1.04
Nc1ccc2nc(-c3cccc(-c4nc5ccc(N)cc5s4)c3)sc2c1 | 1.03
Cc1ccc(-c2noc(C3CCN(C(=O)Nc4ccc(C#N)cc4)CC3)n2)o1 | 0.957
Cc1cc(S(=O)(=O)N2CCN(Cc3ccccc3)CC2)ccc1-n1cnnn1 | 1
CCOc1ccc(C=NNC(=O)CCn2nnc3ccccc32)cc1 | 0.822
C=C(c1ccccc1)[n+]1ccc(C=Cc2ccccc2O)cc1 | 0.871
O=C1NC(=S)NC1=Cc1cccc(Oc2ccccc2)c1 | 0.638
CCC(=O)NC(c1ccccc1Cl)c1cc(Cl)c2cccnc2c1O (stereo not given) | 0.86
COc1cc(OC)cc(C(=O)NCc2n[nH]c(=S)n2-c2cccc(Cl)c2)c1 | 0.626
COc1ccc(NC(=O)C2c3ccccc3C(=O)N(CC(C)C)C2c2cccs2)cc1OC (stereo not given) | 0.0723
Cn1nc(-c2ccccc2)c2c(C(=O)C(F)(F)F)cc(C(=O)C(F)(F)F)c-2c1-c1ccccc1 | 0.917
COc1cc(NC(C)CCCN(Cc2ccc(Cl)cc2)C(=O)C(C)C)c2ncccc2c1 (stereo not given) | 0.827
N#CC1=C(N)Oc2c3c(c4ccccc4c2C1c1ccc(F)cc1)C(c1ccc(F)cc1)C(C#N)=C(N)O3 (stereo not given) | 0.813

SMILES | viability index
O=c1c2c([nH]c3ccccc13)CCCC2 | 0.535
CC(Cl)=CCc1c(C)nc2c(ccc3ccccc32)c1O | 0.527
C=CCn1c(=O)c(C(=O)NCC[N+](CC)(CC)CC=C)c(O)c2ccccc21 | 0.631
CCOc1ccc2[nH]c3c(NCCN(C)C)ncnc3c2c1 | 0.933
Cc1ccc(NC(=O)c2sc3nc4c(c(-c5ccc(C)cc5)c3c2N)CCC4)cc1 | 0.656
Cc1cc(C)cc(C(=O)Nc2c3c(nn2-c2cccc(C)c2C)CS(=O)(=O)C3)c1 | 1.08
Cc1cc(C=C2SC(=Nc3ccccc3)NC2=O)c(C)n1-c1ccccc1 | 0.833
COC(=O)c1cccc(-c2cc(Cl)c3c(c2)CC(CNC(=O)c2c(C)noc2C)O3)c1 (stereo not given) | 0.702
O=C(c1ccc([N+](=O)[O-])cc1)N1CCC(c2nc(O)c3nnn(Cc4c(F)cccc4Cl)c3n2)CC1 | 0.899
Cc1cc(Nc2ccc(Cl)c(Cl)c2)n2nc(C)nc2n1 | 1.09
COc1ccc(-n2nc(C(=O)NCCC3=CCCCC3)c3ccccc3c2=O)cc1 | 1.13
CC(=O)Nc1ccc(N2C(=O)CSC2c2ccc(Br)cc2)cc1 (stereo not given) | 1.07
COc1ccc(C2CC(=O)C3=C(C2)NC(C)=C(C(=O)OC2CCCC2)C3c2ccccc2Cl)cc1OC (stereo not given) | 0.436
O=C1CC(c2cccc([N+](=O)[O-])c2)c2cc3c(cc2N1)OCO3 (stereo not given) | 0.839
O=c1c2c([nH]c3ccccc13)CCCCCC2 | 0.751
N#Cc1ccc2c(c1)nc1c3ccc4c5c(ccc(c(=O)n21)c53)C(=O)NC4=O | 0.224
CCCOC(=O)C1=C(C)NC2=C(C(=O)CC(c3ccc(OC)cc3)C2)C1c1ccccc1Cl (stereo not given) | 0.374
COc1ccc(C2c3[nH]c4ccccc4c3C[C@H]3C(=O)N(CCC(C)C)CC(=O)N23)cc1 (stereo not given in full) | 0.803
O=C(NCc1cccnc1)[C@@H]1C[C@H](NC2CCN(CCc3ccccc3)CC2)CN1Cc1ccc(Cl)cc1 | 0.696
COCCNC(=S)N(Cc1ccc(F)cc1)Cc1cc2ccc(C)c(C)c2[nH]c1=O | 0.746
O=C(CC1OC(=O)c2ccccc21)c1ccc(Cl)cc1 (stereo not given) | 0.496
